Results are given in words; binding and its absence hold for the method and conditions named. Binding seen in cells or lysates may run through a third protein. Some entries that bind do so weakly or less than the wild type.

The chains behind the UniProt entries cited, without tags or fusion partners.
UniProt Q9ULV4: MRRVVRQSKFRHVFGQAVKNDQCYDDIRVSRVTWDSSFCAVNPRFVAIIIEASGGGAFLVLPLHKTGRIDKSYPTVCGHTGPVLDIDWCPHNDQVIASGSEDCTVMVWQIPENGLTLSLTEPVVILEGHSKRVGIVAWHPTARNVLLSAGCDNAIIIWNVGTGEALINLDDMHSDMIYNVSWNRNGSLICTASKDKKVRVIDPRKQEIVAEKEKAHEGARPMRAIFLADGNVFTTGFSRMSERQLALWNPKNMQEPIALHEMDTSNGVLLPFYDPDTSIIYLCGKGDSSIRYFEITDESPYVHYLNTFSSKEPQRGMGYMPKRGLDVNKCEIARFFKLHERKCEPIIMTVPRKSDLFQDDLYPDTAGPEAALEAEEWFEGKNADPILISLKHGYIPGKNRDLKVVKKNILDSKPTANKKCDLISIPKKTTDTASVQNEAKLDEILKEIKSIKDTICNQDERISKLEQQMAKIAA

Among the data in PMC9827817 are binding values, retold here.

The target of this experiment is CORO1C in gastric cancer cell lysate (human (endogenous in SGC-7901 and BGC-823)) (UniProt Q9ULV4). The experiment can be described thus: co-IP; gastric cancer cell lysates (25 mM Tris pH 7.6, 150 mM NaCl, 1% Nonidet P-40, 1 mM EDTA); protein A agarose preloaded with antibodies or normal IgG, overnight at 4°C; western blot; some in cells overexpressing PAK4S99A or PAK4S99D.

B1: PAK4S99D overexpressed in gastric cancer cells (enzyme, UniProt O96013 1-591)
chain: MFGKRKKRVEISAPSNFEHRVHTGFDQHEQKFTGLPRQWQSLIEESARRPKPLVDPACITSIQPGAPKTIVRGSKGAKDGALTLLLDEFENMSVTRSNDLRRDSPPPPARARQENGMPEEPATTARGGPGKAGSRGRFAGHSEAGGGSGDRRRAGPEKRPKSSREGSGGPQESSRDKRPLSGPDVGTPQPAGLASGAKLAAGRPFNTYPRADTDHPSRGAQGEPHDVAPNGPSAGGLAIPQSSSSSSRPPTRARGAPSPGVLGPHASEPQLAPPACTPAAPAVPGPPGPRSPQREPQRVSHEQFRAALQLVVDPGDPRSYLDNFIKIGEGSTGIVCIATVRSSGKLVAVKKMDLRKQQRRELLFNEVVIMRDYQHENVVEMYNSYLVGDELWVVMEFLEGGALTDIVTHTRMNEEQIAAVCLAVLQALSVLHAQGVIHRDIKSDSILLTHDGRVKLSDFGFCAQVSKEVPRRKSLVGTPYWMAPELISRLPYGPEVDIWSLGIMVIEMVDGEPPYFNEPPLKAMKMIRDNLPPRLKNLHKVSPSLKGFLDRLLVRDPAQRATAAELLKHPFLAKAGPPASIVPLMRQNRTR
Take B1: the binding result is “binds”.
